# The campaign covered roughly 310,000 compounds. About 2,200 (0.71%) showed an effect of 50% or more. Effects have a minus sign here. Some of the results follow.
# Target: human ether-à-go-go-related gene (hERG) potassium channel (human, UniProt Q12809)
# Assay: primary screen, population patch clamp on CHO cells stably expressing hERG
# Sequence of human ether-à-go-go-related gene (hERG) potassium channel (Q12809 whole entry, looked up): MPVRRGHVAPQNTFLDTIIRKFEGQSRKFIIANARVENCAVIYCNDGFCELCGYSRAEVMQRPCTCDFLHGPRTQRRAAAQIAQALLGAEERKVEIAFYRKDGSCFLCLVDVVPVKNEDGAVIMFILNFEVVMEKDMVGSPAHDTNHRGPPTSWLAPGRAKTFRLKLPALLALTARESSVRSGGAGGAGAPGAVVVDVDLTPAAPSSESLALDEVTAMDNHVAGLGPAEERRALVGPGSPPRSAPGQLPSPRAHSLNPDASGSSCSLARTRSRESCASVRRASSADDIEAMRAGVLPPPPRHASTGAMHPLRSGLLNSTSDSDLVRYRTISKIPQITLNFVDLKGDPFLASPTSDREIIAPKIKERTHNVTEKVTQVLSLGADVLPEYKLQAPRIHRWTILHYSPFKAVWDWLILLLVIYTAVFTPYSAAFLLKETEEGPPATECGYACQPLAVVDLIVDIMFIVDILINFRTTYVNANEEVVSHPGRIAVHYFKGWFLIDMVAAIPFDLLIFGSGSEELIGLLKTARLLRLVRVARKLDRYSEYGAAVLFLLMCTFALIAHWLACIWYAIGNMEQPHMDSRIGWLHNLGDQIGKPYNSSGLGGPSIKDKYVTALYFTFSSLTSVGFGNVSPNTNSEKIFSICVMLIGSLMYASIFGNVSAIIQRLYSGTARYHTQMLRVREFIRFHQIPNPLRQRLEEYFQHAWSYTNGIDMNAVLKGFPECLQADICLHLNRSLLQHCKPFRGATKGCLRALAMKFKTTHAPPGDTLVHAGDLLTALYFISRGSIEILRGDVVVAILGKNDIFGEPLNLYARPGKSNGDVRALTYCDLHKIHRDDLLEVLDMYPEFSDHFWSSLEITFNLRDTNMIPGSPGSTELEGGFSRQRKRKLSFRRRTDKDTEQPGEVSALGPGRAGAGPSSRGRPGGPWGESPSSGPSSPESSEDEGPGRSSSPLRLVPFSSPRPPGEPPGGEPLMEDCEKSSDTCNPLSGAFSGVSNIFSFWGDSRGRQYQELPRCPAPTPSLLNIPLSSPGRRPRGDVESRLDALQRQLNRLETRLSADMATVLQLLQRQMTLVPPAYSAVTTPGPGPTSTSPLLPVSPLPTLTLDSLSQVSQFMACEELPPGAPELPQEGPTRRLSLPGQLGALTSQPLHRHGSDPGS
row,SMILES,"hERG current change (%, negative = inhibition) at 1uM [%]"
1,Cc1c(NC(=O)C(C)OC(=O)[C@@H](NC(=O)c2ccccc2)C(C)C)c(=O)n(-c2ccccc2)n1C (stereo partly drawn),-0.725
2,CCN(CC)CCC(C)OC(c1ccccc1)c1ccccc1.O=C(O)CC(O)(CC(=O)O)C(=O)O (stereo not drawn),-3.33
3,COCc1cc(C)nc2sc(C(=O)OC(C)C)c(N)c12,-1.63
4,CCCOc1ccc(-c2cc(C(=O)NCC3CCCO3)c3ccccc3n2)cc1 (stereo not drawn),10.8
5,CN(Cc1ccccc1)C(=O)Cn1c(=O)c2cccn2c2cccnc21,-1.36
6,CC(C)(C)OC(=O)CNC(=O)c1[nH]cnc1C(=O)NC(c1ccccc1)c1ccccc1,0.772
7,CS(=O)(=O)c1ccc(C(=O)NC(Cc2ccccc2)c2ccccc2)cc1 (stereo not drawn),10.7
8,CCn1c(O)c(C=Nc2ccccc2)sc1=S,-1.59
9,CN(Cc1ccccc1)C(=O)c1nc2ccccn2c1CNCCn1cccn1,-5.72
10,CC1CN(C(=O)c2ccc(Oc3ccccc3)cc2)CC(C)O1 (stereo not drawn),4.57
11,COc1ccccc1NC(=O)C(=O)NCc1ccncc1,4.41
12,COc1ccc(C(=O)Nn2cnnc2)c(OC)c1,6.2
13,COc1ccc(C2=C(C=C(C#N)C#N)C(c3ccccc3C)c3ccccc3O2)cc1OC (stereo not drawn),3.34
14,O=C(N/C(=C/c1cccs1)C(=O)N1CCOCC1)c1ccccc1,15.6
15,O=C(Nc1ccccc1C(=O)NCc1cccnc1)c1ccccc1F,20
16,NC12CN3CN(CN(C3)C1)C2.O=C(O)c1cccnc1,12.5
17,COC(=O)[C@H](Cc1ccccc1)NC(=O)C1CCN(C(=O)[C@H](C)NS(=O)(=O)c2ccc(C)cc2)CC1,3.05
18,COc1ccc(-c2cc(C(=O)Nc3ccc(OC)cc3OC)no2)cc1,13.5
19,CN(C)CCC(=O)C(Cc1ccccc1)c1ccccc1.Cl (stereo not drawn),13.9
20,CC(=O)Cc1nnn(-c2cc(C)on2)n1,19.5
21,COc1cccc(NC(=O)CCC2CCN(C(=O)c3cncs3)CC2)c1,6.21
22,Cn1c(O)c(C=NCCOc2ccc(Cl)cc2)c(=O)n(C)c1=O,1.91
23,Cc1ccc(S(=O)(=O)Nc2ccc(NC(=O)CN3CCCCC3)cc2)cc1,7.4
24,CN(Cc1ccccc1)C(=O)COc1cc(=O)n(C)c2ccccc12,3.2

# Source: article PMC4336329 (PLoS ONE, 2015)
